# Data published in PubChem BioAssay AID504832 (National Center for Advancing Translational Sciences (NCATS), 2011).
# Hit rate of the full screen: of about 310,000 compounds, about 18,000 (5.8%) were called active. This list was built around the results that the source calls inconclusive (neither active nor inactive); the mix of calls is not that of the screen. Calls come from the whole dose curve; as a rule, active = well fitted inhibition curve with a large enough effect; inconclusive = small, poorly fitted or top-dose-only effect, or another doubt; inactive = no such curve, though single readings can be large or run the other way. Potencies of inconclusive entries are left out as doubtful fits.
# Experiment: Primary qHTS for delayed death inhibitors of the malarial parasite plastid, 48 hour incubation
# Conditions: P. falciparum luciferase growth in erythrocytes; series mostly up to 28.7 µM; activity change, negative = inhibition: at the top concentration
# How it was run: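 Read-out is firefly luciferase luminescence from an integrated reporter in P. falciparum, so falling signal marks reduced parasite growth. Infected erythrocytes were at 2% hematocrit and 0.1% parasitemia (final) in Albumax-supplemented RPMI 1640.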
# % is set by controls: 0 for no effect and ±100 for the full control effect; potency is the fitted concentration of half-maximal effect; tags give direction and shape of the fitted curve.
SMILES,Potency,"activity change, negative = inhibition"
S=C(Nc1cccnc1)NC1CC2CCC1C2 (stereo unspecified),"inconclusive [inhibitor, single point]",–
COc1ccc2c(c1)CC/C(=C/c1cc(OC)c(OC)c(OC)c1)C2=O,"inconclusive [inhibitor, single point]",–
CCCn1c(N)[n+](CC(=O)c2ccco2)c2ccccc21,"inconclusive [inhibitor, single point]",–
CC1CN(C2=NC(=O)/C(=C/c3ccncc3)S2)CC(C)O1 (stereo unspecified),"inconclusive [inhibitor, single point]",–
O=C(Nc1cccc(S(=O)(=O)N2CCCCC2)c1)c1cc2ccccc2o1,"inconclusive [inhibitor, single point]",–
O=[N+]([O-])c1ccc(N2CCN(c3ccccn3)CC2)c(Cl)c1,"inconclusive [inhibitor, single point]",–
COc1ccc(CCn2c(=S)[nH]c3ccc(N4CCOCC4)cc3c2=O)cc1OC,active: 10.4 µM,–
O=C1CC(C(=O)Nc2ncccn2)C(c2ccccc2)O1 (stereo unspecified),"inconclusive [inhibitor, partial curve, poor fit]",–
CN(C)C(=O)N1CCN(c2nc(-c3ccccc3)cs2)CC1,–,inactive: 1.82%
O=C(Nc1ccc2c(c1)OCO2)c1cc2nc(C3CC3)cc(C(F)(F)F)n2n1,–,inactive: 10.9%
CCOc1ccc(C(=O)C2CCN(C(=O)c3ccc([N+](=O)[O-])cc3)CC2)cc1,–,inactive: -1.18%
c1ccc(C2=NNC(=NCc3ccc4c(c3)OCO4)SC2)cc1,–,inactive: 11.5%
Cc1ccc(N=C2SCCCN2C(=O)c2cccc(N3C(=O)CCC3=O)c2)cc1Cl,–,inactive: 0.551%
Cc1c(Cl)cccc1N1C(=O)CC(NNC(=O)c2cccs2)C1=O (stereo unspecified),–,inactive: 6.85%
CCOc1ccc(/C=N/NC(=O)c2cc3c(OC)cc(OC)c(OC)c3[nH]2)cc1,"inconclusive [inhibitor, partial curve]",–
CN1CCN(Cc2ccc(Sc3ccc(Cl)cc3)c([N+](=O)[O-])c2)CC1,"inconclusive [inhibitor, single point]",–
Fc1ccccc1N=C1NN=C(c2ccccc2)CS1,"inconclusive [inhibitor, single point]",–
O=C(NC1CCCc2c1cnn2-c1cc(F)cc(F)c1)c1cc[n+]([O-])cc1 (stereo unspecified),"inconclusive [inhibitor, single point]",–
CCN(C(=O)COC(=O)CNC(=O)c1ccc(C)cc1)c1c(N)n(Cc2ccccc2)c(=O)[nH]c1=O,–,inactive: -8.24%
CCNc1ccccc(-c2ccc3ccccc3n2)c1=O,–,inactive: 215%
COc1ccc(C(=O)CN2CCN(S(=O)(=O)c3cccc([N+](=O)[O-])c3)CC2)cc1OC,–,inactive: -2.82%
